Test results reported in PMC4336329 (PLoS ONE, 2015).
Hit rate of the full screen: of about 310,000 compounds, about 2,200 (0.71%) showed an effect of 50% or more. The effect is printed as a negative number. This is one part of the list.

Biological target: human ether-à-go-go-related gene (hERG) potassium channel (human, UniProt Q12809)
Assay: primary screen, population patch clamp on CHO cells stably expressing hERG

human ether-à-go-go-related gene (hERG) potassium channel, sequence (Q12809 whole entry, looked up): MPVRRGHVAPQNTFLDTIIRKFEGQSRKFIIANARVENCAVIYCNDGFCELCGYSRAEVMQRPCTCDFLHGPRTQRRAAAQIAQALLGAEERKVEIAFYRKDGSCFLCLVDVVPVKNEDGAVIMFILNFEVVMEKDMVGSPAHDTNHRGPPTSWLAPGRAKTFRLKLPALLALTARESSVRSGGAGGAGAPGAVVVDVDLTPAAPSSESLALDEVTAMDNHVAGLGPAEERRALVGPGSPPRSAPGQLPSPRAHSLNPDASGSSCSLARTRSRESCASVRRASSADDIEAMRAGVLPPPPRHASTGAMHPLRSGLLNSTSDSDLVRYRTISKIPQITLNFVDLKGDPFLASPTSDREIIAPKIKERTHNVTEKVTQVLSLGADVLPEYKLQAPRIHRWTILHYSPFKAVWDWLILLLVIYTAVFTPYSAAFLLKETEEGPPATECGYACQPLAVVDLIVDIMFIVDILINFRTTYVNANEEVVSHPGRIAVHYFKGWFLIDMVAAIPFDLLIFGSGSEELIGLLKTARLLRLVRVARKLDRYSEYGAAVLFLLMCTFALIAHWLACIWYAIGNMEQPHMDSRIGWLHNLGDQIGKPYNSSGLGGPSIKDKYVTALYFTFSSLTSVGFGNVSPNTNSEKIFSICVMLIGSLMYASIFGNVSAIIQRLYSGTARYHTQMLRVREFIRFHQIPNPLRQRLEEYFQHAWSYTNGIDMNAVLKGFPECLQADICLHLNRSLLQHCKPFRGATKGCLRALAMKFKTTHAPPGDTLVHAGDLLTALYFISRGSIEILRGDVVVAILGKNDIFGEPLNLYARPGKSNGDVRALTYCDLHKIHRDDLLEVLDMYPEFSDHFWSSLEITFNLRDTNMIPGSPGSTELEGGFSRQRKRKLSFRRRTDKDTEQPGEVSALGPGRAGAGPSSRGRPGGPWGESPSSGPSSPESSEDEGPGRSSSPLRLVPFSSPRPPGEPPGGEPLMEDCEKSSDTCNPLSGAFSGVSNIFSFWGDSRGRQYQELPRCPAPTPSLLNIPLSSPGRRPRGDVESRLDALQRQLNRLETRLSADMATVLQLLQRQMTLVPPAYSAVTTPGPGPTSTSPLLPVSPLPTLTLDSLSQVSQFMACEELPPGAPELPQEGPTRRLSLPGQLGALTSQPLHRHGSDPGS

Compared with `COc1cc(OC)cc(C(=O)N2CCN(c3ncccn3)CC2)c1`, `S=C(Nc1ccc(Cl)cc1Cl)N1CCN(c2ccccn2)CC1` is higher in “hERG current change (%, negative = inhibition) at 1uM” value: -11.2% for the first, 12.7% for the second.

Compared with `Cc1cc(O)cc(C)c1NS(=O)(=O)c1ccc2ccccc2c1`, `Cc1onc(-c2ccccc2)c1CNS(=O)(=O)c1cccc(Br)c1` is higher in “hERG current change (%, negative = inhibition) at 1uM” value: 6.15% for the first, 6.22% for the second.

Compared with `Cc1ccc(C(=O)NCc2ccccc2)c(F)c1F`, `Cc1cccc(NC(=O)Cc2noc3ccccc23)c1` is higher in “hERG current change (%, negative = inhibition) at 1uM” value: 6.49% for the first, 10.6% for the second.

First: N/C(=N\OC(=O)c1ccccc1Br)c1cccc([N+](=O)[O-])c1
Second: CCCC(=O)Nc1cccn(Cc2ccccc2Br)c1=O
The “hERG current change (%, negative = inhibition) at 1uM” value of the first is higher: 12.6% for the first, 11.5% for the second.

Going from `CCOC(=O)c1ccc(NC(=O)Nc2cccc(C)n2)cc1` to `COc1ccccc1NC(=O)Nc1ccc(C(=O)N2CCCCC2)cc1`, the “hERG current change (%, negative = inhibition) at 1uM” value falls from 10% to 2.91%.

Compared with `N#CC1=C(N)OC2=C(C(=O)CCC2)[C@]12C(=O)N(CC(N)=O)c1ccccc12`, `O=C1CCC(C(=O)Nc2ccccc2N2CCCC2)=NN1` is lower in “hERG current change (%, negative = inhibition) at 1uM” value: 6.38% for the first, 4.67% for the second.

First: CC1NC(=S)N(C2CCCCC2)C1=O (stereo not shown)
Second: COC(=O)Cn1c(=NC(=O)CSCC(=O)NC2CCCCC2)sc2cc(OC)ccc21
The “hERG current change (%, negative = inhibition) at 1uM” value of the first is higher: 21% for the first, 11.6% for the second.

First: O=C(Nc1cccc(F)c1)Nc1ccnn1C1CCN(C(=O)c2cscn2)CC1
Second: O=C(Nc1cccc(C(=O)O)c1)Nc1ccc2c(c1)OCO2
The “hERG current change (%, negative = inhibition) at 1uM” value of the first is lower: 9.93% for the first, 11.4% for the second.

First: CCOC(=O)C1(CC)NC(c2ccc(OC)c(OC)c2)C2C(=O)N(c3cccc(C(C)=O)c3)C(=O)C21 (stereo not shown)
Second: CCOC(=O)C1=NN(c2ccc(C)cc2)C2(S1)SC(C(C)=O)=C(C)N2c1ccccc1 (stereo not shown)
The “hERG current change (%, negative = inhibition) at 1uM” value of the first is higher: 14.2% for the first, 8.85% for the second.

Compared with `COC(=O)c1cccc(NC(=O)c2ccc3c(c2)C(=O)N(Cc2cccnc2)C3=O)c1`, `O=C(NCc1cccnc1)C(=O)NCC1OCCCN1S(=O)(=O)c1ccc(Cl)cc1` (stereo not shown) is lower in “hERG current change (%, negative = inhibition) at 1uM” value: 9.79% for the first, 3.57% for the second.

Compared with `COc1cc(OC)cc(N(C(=O)c2ccco2)C(C(=O)NC2CCCC2)c2ccc(N3CCOCC3)cc2)c1` (stereo not shown), `CCC(C)(C)NC(=O)C(c1ccc(F)cc1)N(Cc1cccc(OC)c1)C(=O)c1cnccn1` (stereo not shown) is higher in “hERG current change (%, negative = inhibition) at 1uM” value: 5.53% for the first, 13.8% for the second.

Going from `O=C(CSc1oc(-c2ccco2)nc1S(=O)(=O)c1ccccc1)NCC1CCCO1` (stereo not shown) to `Cc1cc(NC(=O)COC(=O)C2CC(=O)N(c3ccccc3)C2)no1` (stereo not shown), the “hERG current change (%, negative = inhibition) at 1uM” value rises from 8.01% to 15.8%.

Going from `CCCCc1c(O)nc(SCC(=O)N2CCOCC2)n(-c2ccccc2OC)c1=O` to `O=C(CSc1nc(O)c(C(c2ccccc2)c2ccccc2)c(=O)[nH]1)N1CCOCC1`, the “hERG current change (%, negative = inhibition) at 1uM” value rises from 10.4% to 11.3%.

Compared with `CNC(=O)C12CC3CC(CC(Cl)(C3)C1)C2`, `O=C(NC(=S)N1CCCCC1)C12CC3CC(CC(C3)C1)C2` is higher in “hERG current change (%, negative = inhibition) at 1uM” value: 1.47% for the first, 20% for the second.

Going from `CC(C)C[C@@H](CN(C)N=O)N(C[C@H](Cc1ccccc1)N(CCc1ccccc1)N=O)N=O.[Na+]` to `CCN(Cc1ccccc1)Cc1ccc(OCc2ccccc2)cc1.O=C(O)C(=O)O`, the “hERG current change (%, negative = inhibition) at 1uM” value rises from 0.384% to 15%.

First: CCC(Sc1nnc(C)s1)C(=O)Nc1nccs1 (stereo not shown)
Second: COCc1cc(C)nc2sc(C(=O)Nc3nccs3)c(N)c12
The “hERG current change (%, negative = inhibition) at 1uM” value of the first is higher: 9.94% for the first, 5.09% for the second.

Going from `COc1ccccc1C(C#N)N1N=C(C)CC1c1ccccc1` (stereo not shown) to `O=C1N(c2ccccc2)CCN1c1ccccc1`, the “hERG current change (%, negative = inhibition) at 1uM” value rises from 12.4% to 25.8%.

First: Cc1nc2ccccn2c1C(=O)CSc1ccccc1
Second: CC1Cc2ccccc2N1C(=O)CSc1ncccc1C(=O)O (stereo not shown)
The “hERG current change (%, negative = inhibition) at 1uM” value of the first is lower: 8.06% for the first, 21.7% for the second.

Going from `CC(C)(C)C1=CC(=Nc2ccccc2N)C=C(C(C)(C)C)C1=O` to `COc1ccccc1N1C(=O)S/C(=C\c2cc(C)n(C)c2C)C1=O`, the “hERG current change (%, negative = inhibition) at 1uM” value rises from 7.66% to 16.8%.

Compared with `O=C(NC(=S)Nc1ccc(CN2CCCCC2)cc1)c1cc2ccccc2o1`, `COc1ccc(NC(=S)/N=C(\N)Nc2nc(C)c3ccccc3n2)cc1` is higher in “hERG current change (%, negative = inhibition) at 1uM” value: 4.43% for the first, 7.11% for the second.

First: Cn1c2c(c(=O)n(C)c1=O)CN(Cc1ccc3c(c1)OCO3)CN2
Second: C/C(Cl)=C\Cn1c(NCCCn2ccnc2)nc2c1c(=O)n(C)c(=O)n2C
The “hERG current change (%, negative = inhibition) at 1uM” value of the first is lower: -3.2% for the first, -0.552% for the second.

Compared with `Cc1cc(/C=N/NC(N)=O)c(C)c(CO)c1`, `O=C(Cc1c(F)cccc1Cl)N/N=C/c1cccs1` is lower in “hERG current change (%, negative = inhibition) at 1uM” value: 17.1% for the first, 11.4% for the second.

Going from `COc1ccc(C)cc1NC(=O)CNC(c1ccccc1)c1ccc(C)cc1` (stereo not shown) to `CCOc1c2ccc(C(=O)NCc3ccc(C)cc3)cc2nn1CC`, the “hERG current change (%, negative = inhibition) at 1uM” value falls from 14.1% to 9.58%.

Going from `CCNC(=O)C1=C(O)c2sccc2N(C)S1(=O)=O` to `CCn1c(C(=O)N2CCC(C(=O)NCc3ccc(OC)cc3)CC2)cc2sccc21`, the “hERG current change (%, negative = inhibition) at 1uM” value falls from 19.9% to -8.95%.

Going from `Cl.O=C(/C=C/c1ccccc1)N1CCN(CC(O)COc2ccccc2)CC1` (stereo not shown) to `O=C(/C=C/c1ccccc1)Nc1ncn[nH]1`, the “hERG current change (%, negative = inhibition) at 1uM” value rises from -48.2% to 9.47%.

First: COc1ccc2cc(C(=O)C3CCCN(C(=O)c4ccnn4C)C3)ccc2c1 (stereo not shown)
Second: COc1ccc(-c2c(C)oc3c(CN4CCCCC4C)c(O)ccc3c2=O)cc1 (stereo not shown)
The “hERG current change (%, negative = inhibition) at 1uM” value of the first is lower: -8.49% for the first, 9% for the second.

First: O=C(Cc1ccccc1[N+](=O)[O-])NCCSCc1c(F)cccc1Cl
Second: CC(C(=O)NCCc1nc2ccccc2[nH]1)n1cc([N+](=O)[O-])cn1 (stereo not shown)
The “hERG current change (%, negative = inhibition) at 1uM” value of the first is higher: 16.4% for the first, 11.7% for the second.

Going from `Cc1n[nH]c(C)c1S(=O)(=O)N(C)Cc1ccco1` to `COc1ccccc1OCC(=O)NCc1ccco1`, the “hERG current change (%, negative = inhibition) at 1uM” value falls from 15.9% to -5.2%.

Going from `COC(=O)NCc1ccc(Cl)c(Cl)c1` to `CC(C)S(=O)(=O)c1csc(NC(=O)Nc2ccc(Cl)cc2)c1Cl`, the “hERG current change (%, negative = inhibition) at 1uM” value falls from 11.3% to 0.19%.

Compared with `O=S1(=O)CC=C(CSc2nc3ccccc3[nH]2)C1`, `CC(C)OC(=O)c1cc(=O)[nH]c2ccccc12` is lower in “hERG current change (%, negative = inhibition) at 1uM” value: 13.7% for the first, 10.5% for the second.

Going from `O=[N+]([O-])c1ccc(/C=N/Nc2nc(N3CCCC3)nc(N3CCCC3)n2)o1` to `O=c1[nH]c(=O)n(CCc2ccc(F)cc2)c(O)c1/C=N/N1CCCCC1`, the “hERG current change (%, negative = inhibition) at 1uM” value rises from 0.571% to 11.7%.

Going from `CC(=O)c1ccc(N2CCN(S(=O)(=O)c3cn(C)cn3)CC2)cc1` to `CCOc1ccc(S(=O)(=O)N2CCCC(C(=O)N3CCOCC3)C2)cc1` (stereo not shown), the “hERG current change (%, negative = inhibition) at 1uM” value falls from 16.7% to 1.36%.

Compared with `CCOCCn1c(SCC)nc2c1c(=O)[nH]c(=O)n2C`, `Cn1c(SCCN2CCOCC2)nc2sc3c(c2c1=O)CCCC3` is higher in “hERG current change (%, negative = inhibition) at 1uM” value: 3.84% for the first, 9.15% for the second.

Compared with `Cc1nnc(C)n1/N=C/c1cccs1`, `N#C/C(=C\c1cccs1)C(=O)N1CCOCC1` is higher in “hERG current change (%, negative = inhibition) at 1uM” value: 13.5% for the first, 14.8% for the second.

Compared with `CNc1cc(C(F)(F)F)nc(-c2ccccn2)n1`, `CC(C)C(=O)NC(=S)Nc1ccccc1C(F)(F)F` is lower in “hERG current change (%, negative = inhibition) at 1uM” value: 18.7% for the first, 11.6% for the second.

Compared with `CCOC(=O)Nc1ccc2c(c1)N(C(=O)CN1CCN(CCO)CC1)c1ccccc1CC2.Cl`, `CCOC(=O)C1CCN(c2c(NCCCN3CCN(Cc4ccccc4)CC3)c(=O)c2=O)CC1` is higher in “hERG current change (%, negative = inhibition) at 1uM” value: 12.3% for the first, 14.3% for the second.

Going from `CCOC(=O)N1CCC(NC(=O)CCCN2C(=O)CSc3ncccc32)CC1` to `Cc1nc(-c2ccc(S(=O)(=O)NCC3CCN(C(=O)OC(C)(C)C)CC3)s2)cs1`, the “hERG current change (%, negative = inhibition) at 1uM” value falls from 10.2% to 10.1%.

First: Clc1ccc(SCCCCN2CCNCC2)cc1.O=C(O)C(=O)O
Second: CCN(CC)C(=O)Oc1ccc(NC(=O)N2CCOCC2)cc1
The “hERG current change (%, negative = inhibition) at 1uM” value of the first is lower: -8.4% for the first, 13.8% for the second.

First: Cc1ccc(N2C(=O)C(Cl)=C(Nc3c(C)n(C)n(-c4ccccc4)c3=O)C2=O)cc1
Second: O=C(CSc1ccc2ccccc2n1)Nc1nsc(-c2ccc(Cl)cc2)n1
The “hERG current change (%, negative = inhibition) at 1uM” value of the first is higher: 1.61% for the first, -4.42% for the second.

Going from `CCn1c(CCC(=O)O)nc2cc(S(=O)(=O)N(C)C)ccc21` to `CCOC(=O)Cn1cnc2scc(-c3ccc(C)c(C)c3)c2c1=O`, the “hERG current change (%, negative = inhibition) at 1uM” value falls from 13.6% to 10.8%.

Going from `O=S(CCc1ccncc1)Cc1ccccc1` (stereo not shown) to `CCOP(=O)(OCC)C(Nc1ccc(C(=O)O)cc1)c1ccccc1` (stereo not shown), the “hERG current change (%, negative = inhibition) at 1uM” value falls from 7.98% to 2.13%.

Going from `O=C(NCC1(O)CCCCC1)C1CCC(=O)N(Cc2cccc(C(F)(F)F)c2)C1` (stereo not shown) to `Cc1cc(C)c(C(=O)COC(=O)C2CCN(c3ccc(C(F)(F)F)cn3)CC2)c(C)c1`, the “hERG current change (%, negative = inhibition) at 1uM” value falls from 10.7% to 3.26%.

First: COc1ccc(CN2C(=O)C(Cc3ccccc3)Nc3ncnc(N4CCN(c5ccccc5)CC4)c32)cc1.O=C(O)C(F)(F)F (stereo not shown)
Second: O=C(O)COc1ccccc1/C=N/NC(=O)c1ccc(F)cc1
The “hERG current change (%, negative = inhibition) at 1uM” value of the first is higher: 15.4% for the first, 1.34% for the second.

Compared with `Cc1ccc(NC(=O)CNC(=O)CC23CC4CC(CC(C4)C2)C3)c(O)c1`, `O=C(O)c1cccc(O)c1O` is higher in “hERG current change (%, negative = inhibition) at 1uM” value: -4.2% for the first, 8.42% for the second.

Going from `COc1ccccc1N(CCC#N)C(=O)CSc1ccc2c(c1)OCCO2` to `O=C(Nc1ccc(Cl)cc1)c1ccc2snnc2c1`, the “hERG current change (%, negative = inhibition) at 1uM” value rises from -6.85% to 14.7%.

For `Oc1ccc(/C=N/NC(=S)Nc2cccnc2)cc1`, the “hERG current change (%, negative = inhibition) at 1uM” value was 4.26%.
